Results taken from PubChem BioAssay AID624296 (National Center for Advancing Translational Sciences (NCATS), 2012).
The whole screen tested about 350,000 compounds, of which about 9,900 (2.8%) were called active. Inconclusive results, whose numbers are uncertain, are shown with a selection of clear calls. The call rests on the fitted dose curve; in most records, active means well fitted activation curve with a large enough effect; inconclusive means small, poorly fitted or top-dose-only effect; inactive means no such curve, though single readings can be large or run the other way. Potencies of inconclusive entries are left out as doubtful fits.

Assay: A quantitative high throughput screen for small molecules that induce DNA re-replication in MCF 10a normal breast cells. Further: nearly all actives have a fitted effect of over 50% in size.
Conditions: MCF 10A DNA re-replication, Hoechst nuclear intensity, 48 h; series mostly up to 46.1 µM
Potency means the concentration at half of the fitted maximal effect; tags describe the fitted curve by direction and shape.

SMILES | Potency
O=C(NC1CCCCC1)c1sc(N2CCOCC2)nc1-c1ccccc1 | active: 5.8 µM
CSc1ccccc1C(=O)NCCSC(C)(C)C | inactive
CCOC(=O)CN1CC23C=CC(O2)C(C(=O)Nc2ccc(C(C)=O)cc2)C3C1=O (centres undefined) | inconclusive [activator, partial curve, poor fit]
O=C(CSC1=NC2(CCCCC2)N=C1c1ccccc1)Nc1ccc2c(c1)OCCO2 | inconclusive [activator, single point]
CC(=O)N1CCC(C(=O)Nc2ccc(S(=O)(=O)N3CCCCC3)cc2)CC1 | inactive
Cc1cc2cc(CN(Cc3nnnn3C3CCCCC3)CC3CCCO3)c(=O)[nH]c2cc1C (centres undefined) | inconclusive [activator, partial curve, poor fit]
O=C(O)/C=C/c1ccc([N+](=O)[O-])o1 | inconclusive [activator, single point]
Nc1nc(-c2ccccc2)c(N=Nc2cccc3ccccc23)s1 | inconclusive [activator, single point]
Nc1ccc(C(=O)N2CCN(S(=O)(=O)c3ccc4c(c3)OCCCO4)CC2)cc1[N+](=O)[O-] | inactive
Cc1ccc(C(C)C)cc1OCC(=O)N/N=C/c1ccc2c(c1)OCCO2 | inconclusive [activator, single point]
O=C(Nc1cccc2ccccc12)NC1CCS(=O)(=O)C1 (centres undefined) | inactive
Cc1cccc2sc(NNC(=O)c3ccc(S(=O)(=O)N4CC(C)CC(C)C4)cc3)nc12 (centres undefined) | inconclusive [activator, single point]
NC(=O)c1nsc(C(=O)N(c2cccc(F)c2)C(C(=O)NCc2ccccc2)c2ccc(O)cc2)c1N (centres undefined) | inconclusive [activator, single point]
COC(=O)C1=CN(Cc2ccc(OC)cc2)C=C(C(=O)OC)C1c1ccsc1 | inconclusive [activator, single point]
COc1ccccc1CC(=O)N(Cc1ccccc1)c1ccc(C)cc1 | inconclusive [activator, partial curve, poor fit]
CCCc1sc(N)nc1-c1ccc(C)cc1 | inactive
CC(=O)/C(N=Nc1cc(C)ccc1O)=C(\C)O | inconclusive [activator, single point]
CC12COC3(C(=O)Nc4ccc([N+](=O)[O-])cc4)CC1CCC32C (centres undefined) | inconclusive [activator, single point]
CCC(=O)NC(=S)Nc1ccc(NC(=O)COc2ccc(Cl)cc2Cl)cc1 | inconclusive [activator, single point]
COc1cc(OC)cc(C(=O)NCC(=O)OCC(=O)c2ccc3c(c2)-c2ccccc2C3)c1 | inconclusive [activator, single point]
O=C(c1cc(F)c(F)c(F)c1F)N1CCN(Cc2ccc3c(c2)OCO3)CC1 | inactive
COc1cc(OC)cc(C(=O)OC/C(O)=C(\C#N)c2nc3ccccc3[nH]2)c1 | active: 20.6 µM

SMILES | Potency
O=C(CCCOc1ccc(Cl)cc1Cl)N/N=C\C1CCCCC1 | inconclusive [activator, partial curve, poor fit]
CC(C)c1nnc(NC(=O)C2CCN(c3nc4ccccc4s3)CC2)s1 | inconclusive [activator, partial curve]
O=c1cc2c(nn1Cc1ccccc1Cl)-c1ccccc1CC2 | inactive
Cc1ccc2nc(-c3ccc(NC(=O)CNC4CC4)cc3)sc2c1 | inconclusive [activator, single point]
Cc1onc(-c2ccccc2)c1C(=O)Nc1nncs1 | inactive
Nc1c(C(=O)Nc2ccc(Cl)c(C(=O)O)c2)sc2nc3c(cc12)CCCC3 | inconclusive [activator, partial curve, poor fit]
CC(=O)c1c(C)[nH]c(C(=O)Nc2ccc(Cl)cc2)c1C | inactive
COc1ccc(Nc2cccc(Cl)c2)c(C(=O)O)c1 | inconclusive [activator, full curve]
Cc1ccc(S(=O)(=O)N2CCN(C(=O)CSc3ccc(F)cc3)CC2)cc1 | inconclusive [activator, partial curve, poor fit]
COc1ccc(-c2csc(N3CCN(C(=O)c4ccccc4)CC3)n2)cc1 | inconclusive [activator, single point]
CC(C)N(C)NC(=S)Nc1ccccc1 | inactive
CCOC(=O)COc1cc(-n2c(=S)[nH]c3ccccc3c2=O)c(Cl)cc1Cl | inconclusive [activator, partial curve, poor fit]
COC(=O)c1cc(=O)n(Cc2cccs2)c(=Nc2ccccc2)s1 | active: 10.3 µM
CCCCOc1ccc(NC2=NC3(CCCC3)N=C(N)N2)cc1 | inconclusive [activator, single point]
O=C(O)Cn1cnc2c(OCc3ccccc3)ncnc21 | inconclusive [activator, single point]
N#Cc1c(N2CCCCC2)nc(N)c2c(N)nc3c(c12)CC(c1ccccc1)O3 (centres undefined) | inconclusive [activator, single point]
CC1CCN(S(=O)(=O)c2ccc(NC(=O)CN3CCCC3)cc2)CC1 | active: 9.2 µM
Cc1cccc(C(O)(C(=O)NNc2ccc3ccccc3n2)c2cccc(C)c2)c1 | inconclusive [activator, single point]
COc1cc(NC(=O)c2cc(-c3cccs3)on2)cc(OC)c1OC | inconclusive [activator, partial curve, poor fit]
Cc1cccc(N2CCN(c3nc4ccccc4n4cnnc34)CC2)c1C | inconclusive [activator, partial curve, poor fit]
CN(CC(=O)Nc1cccc(F)c1)CC(=O)Nc1cccc(S(=O)(=O)N2CCCCCC2)c1 | inactive
COc1ccc(S(=O)(=O)n2oc(=O)cc2-c2ccccc2)cc1 | inconclusive [activator, single point]
